Test results published in paper PMC3709894.
Results are given in words; binding and its absence hold for the method and conditions named. In cells and extracts the contact can be indirect. Some binding calls cover weakened binding; strength is not graded here. Where a sequence is shown, tags or fusion partners need not be part of it.

Key:
[1] = target: T1, Flag-Rad21 single mutant (SM) L385A (human) (UniProt O60216); test: co-IP; 293 T cells transfected with pFlag CMV2 Rad21 constructs; IP of Flag-Rad21 (Flag mAb agarose beads) from whole cell lysate, blots of endogenous cohesin subunits and associated proteins
T1 sequence: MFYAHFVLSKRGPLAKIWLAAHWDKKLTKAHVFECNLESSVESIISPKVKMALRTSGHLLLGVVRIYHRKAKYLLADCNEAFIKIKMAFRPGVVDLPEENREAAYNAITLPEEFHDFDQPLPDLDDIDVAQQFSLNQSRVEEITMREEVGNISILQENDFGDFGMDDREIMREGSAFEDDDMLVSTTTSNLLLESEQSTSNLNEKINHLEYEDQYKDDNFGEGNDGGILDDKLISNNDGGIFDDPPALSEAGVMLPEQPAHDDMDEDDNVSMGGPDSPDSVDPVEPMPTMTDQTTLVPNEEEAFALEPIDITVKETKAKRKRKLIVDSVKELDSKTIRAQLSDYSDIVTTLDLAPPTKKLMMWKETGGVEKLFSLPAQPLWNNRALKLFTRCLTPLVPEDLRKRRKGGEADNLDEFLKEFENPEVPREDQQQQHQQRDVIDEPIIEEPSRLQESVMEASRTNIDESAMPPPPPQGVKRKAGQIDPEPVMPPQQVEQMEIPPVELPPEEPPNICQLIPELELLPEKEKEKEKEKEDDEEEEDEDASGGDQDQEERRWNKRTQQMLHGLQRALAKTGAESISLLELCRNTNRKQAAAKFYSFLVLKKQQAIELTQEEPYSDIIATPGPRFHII

[2] = target: T2, Flag-Rad21 triple mutant (TM) L385A F389A T390A (human) (UniProt O60216); test: as above
T2 sequence: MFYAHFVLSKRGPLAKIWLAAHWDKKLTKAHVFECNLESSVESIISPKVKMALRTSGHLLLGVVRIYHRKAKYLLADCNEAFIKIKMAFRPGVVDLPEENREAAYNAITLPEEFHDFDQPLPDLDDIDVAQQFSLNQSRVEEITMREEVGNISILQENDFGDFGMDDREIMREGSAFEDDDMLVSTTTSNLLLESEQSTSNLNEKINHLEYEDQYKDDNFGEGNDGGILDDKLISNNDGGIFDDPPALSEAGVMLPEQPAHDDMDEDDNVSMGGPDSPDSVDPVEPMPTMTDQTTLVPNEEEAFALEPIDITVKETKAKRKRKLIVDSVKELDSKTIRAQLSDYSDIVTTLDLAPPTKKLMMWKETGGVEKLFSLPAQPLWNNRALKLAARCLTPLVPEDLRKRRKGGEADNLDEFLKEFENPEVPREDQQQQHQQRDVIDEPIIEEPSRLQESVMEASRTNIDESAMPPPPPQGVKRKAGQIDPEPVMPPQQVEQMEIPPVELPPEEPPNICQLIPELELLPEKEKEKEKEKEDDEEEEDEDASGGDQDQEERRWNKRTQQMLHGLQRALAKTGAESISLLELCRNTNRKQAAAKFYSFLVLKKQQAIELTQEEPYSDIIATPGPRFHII

- binding [1]: binds
- binding [2]: binds
B1: endogenous Smc1 (protein, UniProt Q14683 1-1233)
chain: MGFLKLIEIENFKSYKGRQIIGPFQRFTAIIGPNGSGKSNLMDAISFVLGEKTSNLRVKTLRDLIHGAPVGKPAANRAFVSMVYSEEGAEDRTFARVIVGGSSEYKINNKVVQLHEYSEELEKLGILIKARNFLVFQGAVESIAMKNPKERTALFEEISRSGELAQEYDKRKKEMVKAEEDTQFNYHRKKNIAAERKEAKQEKEEADRYQRLKDEVVRAQVQLQLFKLYHNEVEIEKLNKELASKNKEIEKDKKRMDKVEDELKEKKKELGKMMREQQQIEKEIKEKDSELNQKRPQYIKAKENTSHKIKKLEAAKKSLQNAQKHYKKRKGDMDELEKEMLSVEKARQEFEERMEEESQSQGRDLTLEENQVKKYHRLKEEASKRAATLAQELEKFNRDQKADQDRLDLEERKKVETEAKIKQKLREIEENQKRIEKLEEYITTSKQSLEEQKKLEGELTEEVEMAKRRIDEINKELNQVMEQLGDARIDRQESSRQQRKAEIMESIKRLYPGSVYGRLIDLCQPTQKKYQIAVTKVLGKNMDAIIVDSEKTGRDCIQYIKEQRGEPETFLPLDYLEVKPTDEKLRELKGAKLVIDVIRYEPPHIKKALQYACGNALVCDNVEDARRIAFGGHQRHKTVALDGTLFQKSGVISGGASDLKAKARRWDEKAVDKLKEKKERLTEELKEQMKAKRKEAELRQVQSQAHGLQMRLKYSQSDLEQTKTRHLALNLQEKSKLESELANFGPRINDIKRIIQSREREMKDLKEKMNQVEDEVFEEFCREIGVRNIREFEEEKVKRQNEIAKKRLEFENQKTRLGIQLDFEKNQLKEDQDKVHMWEQTVKKDENEIEKLKKEEQRHMKIIDETMAQLQDLKNQHLAKKSEVNDKNHEMEEIRKKLGGANKEMTHLQKEVTAIETKLEQKRSDRHNLLQACKMQDIKLPLSKGTMDDISQEEGSSQGEDSVSGSQRISSIYAREALIEIDYGDLCEDLKDAQAEEEIKQEMNTLQQKLNEQQSVLQRIAAPNMKAMEKLESVRDKFQETSDEFEAARKRAKKAKQAFEQIKKERFDRFNACFESVATNIDEIYKALSRNSSAQAFLGPENPEEPYLDGINYNCVAPGKRFRPMDNLSGGEKTVAALALLFAIHSYKPAPFFVLDEIDAALDNTNIGKVANYIKEQSTCNFQAIVISLKEEFYTKAESLIGVYPEQGDCVISKVLTFDLTKYPDANPNPNEQ
